The source of these data is the supplement of paper PMC8728848.

Some of the results follow.

What all share (assay): glycan array binding signal (z-score within array); higher = stronger binding
Details in all cases: glycan notation: IUPAC condensed, linker removed

In test [1] the target is Gal(b1-4)GlcNAc(b1-3)Gal(b1-4)GlcNAc(b1-3)Gal(b1-4)GlcNAc(b1-3)Gal(b1-4)GlcNAc(b1-2)Man(a1-3)[Gal(b1-4)GlcNAc(b1-3)Gal(b1-4)GlcNAc(b1-3)Gal(b1-4)GlcNAc(b1-3)Gal(b1-4)GlcNAc(b1-2)Man(a1-6)]Man(b1-4)GlcNAc(b1-4)GlcNAc. An outline of the steps:
(§1)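 The binding signal is a Z-score computed within each array and averaged over linkers. Arrays of the same protein sequence at different concentrations or buffers were also averaged together. Data originate from 3228 arrays in the Consortium for Functional Glycomics database, kept only where the protein sequence was available.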

The target in test [2] is Gal(b1-4)GlcNAc(b1-3)Gal(b1-4)GlcNAc(b1-3)Gal(b1-4)GlcNAc(b1-3)Gal(b1-4)GlcNAc(b1-2)Man(a1-3)[Gal(b1-4)GlcNAc(b1-3)Gal(b1-4)GlcNAc(b1-3)Gal(b1-4)GlcNAc(b1-3)Gal(b1-4)GlcNAc(b1-2)Man(a1-6)]Man(b1-4)GlcNAc(b1-4)[Fuc(a1-6)]GlcNAc. An outline of the steps: as §1
The target in test [3] is Gal(b1-4)GlcNAc(b1-3)Gal(b1-4)GlcNAc(b1-3)Gal(b1-4)GlcNAc(b1-3)Gal(b1-4)GlcNAc(b1-2)[Gal(b1-4)GlcNAc(b1-3)Gal(b1-4)GlcNAc(b1-3)Gal(b1-4)GlcNAc(b1-3)Gal(b1-4)GlcNAc(b1-6)]Man(a1-6)[Gal(b1-4)GlcNAc(b1-3)Gal(b1-4)GlcNAc(b1-3)Gal(b1-4)GlcNAc(b1-3)Gal(b1-4)GlcNAc(b1-2)Man(a1-3)]Man(b1-4)GlcNAc(b1-4)[Fuc(a1-6)]GlcNAc. Summed up: as §1
For test [4], the target named is Gal(b1-4)GlcNAc(b1-3)Gal(b1-4)GlcNAc(b1-3)Gal(b1-4)GlcNAc(b1-3)Gal(b1-4)GlcNAc(b1-3)Gal(b1-4)GlcNAc(b1-2)Man(a1-3)[Gal(b1-4)GlcNAc(b1-3)Gal(b1-4)GlcNAc(b1-3)Gal(b1-4)GlcNAc(b1-3)Gal(b1-4)GlcNAc(b1-3)Gal(b1-4)GlcNAc(b1-2)Man(a1-6)]Man(b1-4)GlcNAc(b1-4)GlcNAc. Summed up:
as §1

The target in test [5] is Gal(b1-4)GlcNAc(b1-3)Gal(b1-4)GlcNAc(b1-3)Gal(b1-4)GlcNAc(b1-3)Gal(b1-4)GlcNAc(b1-3)Gal(b1-4)GlcNAc(b1-2)Man(a1-3)[Gal(b1-4)GlcNAc(b1-3)Gal(b1-4)GlcNAc(b1-3)Gal(b1-4)GlcNAc(b1-3)Gal(b1-4)GlcNAc(b1-3)Gal(b1-4)GlcNAc(b1-2)Man(a1-6)]Man(b1-4)GlcNAc(b1-4)[Fuc(a1-6)]GlcNAc. An outline of the steps:
as §1

Test [6] concerns the target Gal(b1-4)GlcNAc(b1-3)Gal(b1-4)GlcNAc(b1-3)Gal(b1-4)GlcNAc(b1-3)Gal(b1-4)GlcNAc(b1-3)Gal(b1-4)GlcNAc(b1-2)[Gal(b1-4)GlcNAc(b1-3)Gal(b1-4)GlcNAc(b1-3)Gal(b1-4)GlcNAc(b1-3)Gal(b1-4)GlcNAc(b1-3)Gal(b1-4)GlcNAc(b1-6)]Man(a1-6)[Gal(b1-4)GlcNAc(b1-3)Gal(b1-4)GlcNAc(b1-3)Gal(b1-4)GlcNAc(b1-3)Gal(b1-4)GlcNAc(b1-3)Gal(b1-4)GlcNAc(b1-2)Man(a1-3)]Man(b1-4)GlcNAc(b1-4)[Fuc(a1-6)]GlcNAc. An outline of the steps: as §1

In test [7] the target is Gal(b1-4)GlcNAc(b1-3)Gal(b1-4)GlcNAc(b1-3)Gal(b1-4)GlcNAc(b1-3)Gal(b1-4)GlcNAc(b1-3)Gal(b1-4)GlcNAc(b1-3)Gal(b1-4)GlcNAc(b1-2)Man(a1-3)[Gal(b1-4)GlcNAc(b1-3)Gal(b1-4)GlcNAc(b1-3)Gal(b1-4)GlcNAc(b1-3)Gal(b1-4)GlcNAc(b1-3)Gal(b1-4)GlcNAc(b1-3)Gal(b1-4)GlcNAc(b1-2)Man(a1-6)]Man(b1-4)GlcNAc(b1-4)GlcNAc. An outline of the steps: as §1
Test [8] deals with Gal(b1-4)GlcNAc(b1-3)Gal(b1-4)GlcNAc(b1-3)GalNAc. An outline of the steps:
as §1

In test [9] the target is Gal(b1-4)GlcNAc(b1-3)Gal(b1-4)GlcNAc(b1-3)[Gal(b1-4)GlcNAc(b1-3)Gal(b1-4)GlcNAc(b1-6)]GalNAc. Summed up:
as §1

Test [10] has as its target Gal(b1-4)GlcNAc(b1-3)Gal(b1-4)GlcNAc(b1-6)[Gal(b1-3)]GalNAc. An outline of the steps: as §1
Test [11] deals with Gal(b1-4)GlcNAc(b1-3)Gal(b1-4)[Fuc(a1-3)]GlcNAc(b1-3)Gal(b1-4)[Fuc(a1-3)]GlcNAc. Summed up:
as §1

For test [12], the target named is Gal(b1-4)GlcNAc(b1-3)GalNAc. Summed up:
as §1

The target in test [13] is Gal(b1-4)GlcNAc(b1-3)[Fuc(a1-3)GlcNAc(b1-6)]Gal(b1-4)Glc. An outline of the steps: as §1
In test [14] the target is Gal(b1-4)GlcNAc(b1-3)[Gal(b1-4)GlcNAc(b1-6)]Gal(b1-4)GlcNAc. An outline of the steps: as §1
In test [15] the target is Gal(b1-4)GlcNAc(b1-3)[Gal(b1-4)GlcNAc(b1-6)]GalNAc. Summed up:
as §1

The target of test [16] is Gal(b1-4)GlcNAc(b1-3)[GlcNAc(b1-6)]Gal(b1-4)GlcNAc. Summed up:
as §1

Test [17] deals with Gal(b1-4)GlcNAc(b1-6)Gal(b1-4)GlcNAc. Summed up:
as §1

Test [18] addresses Gal(b1-4)GlcNAc(b1-6)Gal(b1-4)GlcNAc(b1-6)GalNAc. Summed up:
as §1

The target of test [19] is Gal(b1-4)GlcNAc(b1-6)GalNAc. Summed up: as §1

B1: DBA (Dolichos biflorus) (protein)
chain: ANIQSFSFKNFNSPSFILQGDATVSSGKLQLTKVKENGFPLRFPSGRAFYSSPIQIYDKFTGAVASWATSFTVKISAPSKASFADGIAFALVPVGSEPRRNGGYLGVFDSDVYNNSAQTVAVEFDTLSNSGWDPSMKHIGIDVNSIKSIATVSWDLANGENAEILITYNAATSLLVVSLVHPSRRTSYILSERVDITNELPEYVGVGFSATTGLSEGYIETHDVLSWSFASRLPDDSTAEPLDLARYLVRNVL
Consider B1, for which the “glycan array binding signal (z-score)” value in test [1] is -0.015; in [2], 0.067; in test [3], 0.01; in test [4], -0.031; in [5], 0.028; in [6] it was 0.013. For the same molecule, the “glycan array binding signal (z-score)” value in test [7] was -0.183; in test [8] it was 0.114; in test [9], 0.076; in [10] it was 0.134; in test [11], -0.114; in [12] it was -0.144. For the same molecule, the “glycan array binding signal (z-score)” value in test [13] is -0.11; in test [14] it was -0.108; in test [15] it was -0.168; in test [16], -0.133; in test [17] it was -0.122; in [18], -0.17. Moreover, the “glycan array binding signal (z-score)” value in test [19] is -0.083.
